{"source": "a compilation of properties of binary mixtures (doi:10.1021/je970101l)", "assay": "xn = mol fraction of the nth substance listed", "conditions": "298.15 K, 100 kPa", "note": "Some of these densities may be calculated back from excess volumes.", "data": [{"smiles": "C=COC(C)=O", "note": "+ COC(=O)OC", "values": [{"measurement": "mass density", "setting": "x2 = 0.0442", "result": 931.6, "unit": "kg/m3"}, {"measurement": "mass density", "setting": "x2 = 0.1007", "result": 939.1, "unit": "kg/m3"}, {"measurement": "mass density", "setting": "x2 = 0.1976", "result": 952.1, "unit": "kg/m3"}, {"measurement": "mass density", "setting": "x2 = 0.3893", "result": 978, "unit": "kg/m3"}, {"measurement": "mass density", "setting": "x2 = 0.4333", "result": 984, "unit": "kg/m3"}, {"measurement": "mass density", "setting": "x2 = 0.4874", "result": 991.4, "unit": "kg/m3"}, {"measurement": "mass density", "setting": "x2 = 0.5637", "result": 1002, "unit": "kg/m3"}, {"measurement": "mass density", "setting": "x2 = 0.6625", "result": 1015.7, "unit": "kg/m3"}, {"measurement": "mass density", "setting": "x2 = 0.7073", "result": 1021.9, "unit": "kg/m3"}, {"measurement": "mass density", "setting": "x2 = 0.8836", "result": 1046.7, "unit": "kg/m3"}, {"measurement": "mass density", "setting": "x2 = 0.9354", "result": 1054.1, "unit": "kg/m3"}]}, {"smiles": "CCCCCCOC(C)=O", "note": "+ COC(=O)OC", "values": [{"measurement": "mass density", "setting": "x1 = 0.0071", "result": 1060.5, "unit": "kg/m3"}, {"measurement": "mass density", "setting": "x2 = 0.038", "result": 872.2, "unit": "kg/m3"}, {"measurement": "mass density", "setting": "x2 = 0.1708", "result": 886.2, "unit": "kg/m3"}, {"measurement": "mass density", "setting": "x2 = 0.2782", "result": 899.1, "unit": "kg/m3"}, {"measurement": "mass density", "setting": "x2 = 0.3601", "result": 910.2, "unit": "kg/m3"}, {"measurement": "mass density", "setting": "x2 = 0.4523", "result": 924.1, "unit": "kg/m3"}, {"measurement": "mass density", "setting": "x2 = 0.5246", "result": 936.3, "unit": "kg/m3"}, {"measurement": "mass density", "setting": "x2 = 0.5891", "result": 948.3, "unit": "kg/m3"}, {"measurement": "mass density", "setting": "x2 = 0.6183", "result": 954.1, "unit": "kg/m3"}, {"measurement": "mass density", "setting": "x2 = 0.6649", "result": 963.9, "unit": "kg/m3"}, {"measurement": "mass density", "setting": "x2 = 0.7362", "result": 980.4, "unit": "kg/m3"}, {"measurement": "mass density", "setting": "x2 = 0.7713", "result": 989.3, "unit": "kg/m3"}, {"measurement": "mass density", "setting": "x2 = 0.8148", "result": 1001, "unit": "kg/m3"}, {"measurement": "mass density", "setting": "x2 = 0.882", "result": 1021.1, "unit": "kg/m3"}, {"measurement": "mass density", "setting": "x2 = 0.928", "result": 1036.4, "unit": "kg/m3"}, {"measurement": "mass density", "setting": "x2 = 0.9606", "result": 1048.1, "unit": "kg/m3"}]}, {"smiles": "CCCCCOC(C)=O", "note": "+ COC(=O)OC", "values": [{"measurement": "mass density", "setting": "x1 = 0.0137", "result": 1058.6, "unit": "kg/m3"}, {"measurement": "mass density", "setting": "x2 = 0.0504", "result": 877.9, "unit": "kg/m3"}, {"measurement": "mass density", "setting": "x2 = 0.1365", "result": 887.7, "unit": "kg/m3"}, {"measurement": "mass density", "setting": "x2 = 0.2545", "result": 902.4, "unit": "kg/m3"}, {"measurement": "mass density", "setting": "x2 = 0.331", "result": 913, "unit": "kg/m3"}, {"measurement": "mass density", "setting": "x2 = 0.424", "result": 927.1, "unit": "kg/m3"}, {"measurement": "mass density", "setting": "x2 = 0.4981", "result": 939.4, "unit": "kg/m3"}, {"measurement": "mass density", "setting": "x2 = 0.5552", "result": 949.7, "unit": "kg/m3"}, {"measurement": "mass density", "setting": "x2 = 0.5964", "result": 957.5, "unit": "kg/m3"}, {"measurement": "mass density", "setting": "x2 = 0.6428", "result": 966.9, "unit": "kg/m3"}, {"measurement": "mass density", "setting": "x2 = 0.7112", "result": 981.8, "unit": "kg/m3"}, {"measurement": "mass density", "setting": "x2 = 0.7551", "result": 992.1, "unit": "kg/m3"}, {"measurement": "mass density", "setting": "x2 = 0.7908", "result": 1001, "unit": "kg/m3"}, {"measurement": "mass density", "setting": "x2 = 0.9202", "result": 1037.2, "unit": "kg/m3"}, {"measurement": "mass density", "setting": "x2 = 0.9507", "result": 1046.7, "unit": "kg/m3"}]}, {"smiles": "CCCCOC(C)=O", "note": "+ COC(=O)OC", "values": [{"measurement": "mass density", "setting": "x1 = 0.0175", "result": 1058.1, "unit": "kg/m3"}, {"measurement": "mass density", "setting": "x2 = 0.1566", "result": 895.5, "unit": "kg/m3"}, {"measurement": "mass density", "setting": "x2 = 0.3608", "result": 924.6, "unit": "kg/m3"}, {"measurement": "mass density", "setting": "x2 = 0.483", "result": 944.7, "unit": "kg/m3"}, {"measurement": "mass density", "setting": "x2 = 0.5687", "result": 960.3, "unit": "kg/m3"}, {"measurement": "mass density", "setting": "x2 = 0.6422", "result": 974.9, "unit": "kg/m3"}, {"measurement": "mass density", "setting": "x2 = 0.6887", "result": 984.3, "unit": "kg/m3"}, {"measurement": "mass density", "setting": "x2 = 0.7305", "result": 993.4, "unit": "kg/m3"}, {"measurement": "mass density", "setting": "x2 = 0.8341", "result": 1017.8, "unit": "kg/m3"}, {"measurement": "mass density", "setting": "x2 = 0.9177", "result": 1039.7, "unit": "kg/m3"}, {"measurement": "mass density", "setting": "x2 = 0.9494", "result": 1048.5, "unit": "kg/m3"}]}, {"smiles": "CCCOC(C)=O", "note": "+ COC(=O)OC", "values": [{"measurement": "mass density", "setting": "x2 = 0.0151", "result": 885.3, "unit": "kg/m3"}, {"measurement": "mass density", "setting": "x2 = 0.1409", "result": 902.4, "unit": "kg/m3"}, {"measurement": "mass density", "setting": "x2 = 0.2986", "result": 925.7, "unit": "kg/m3"}, {"measurement": "mass density", "setting": "x2 = 0.3624", "result": 935.8, "unit": "kg/m3"}, {"measurement": "mass density", "setting": "x2 = 0.4388", "result": 948.4, "unit": "kg/m3"}, {"measurement": "mass density", "setting": "x2 = 0.4997", "result": 958.8, "unit": "kg/m3"}, {"measurement": "mass density", "setting": "x2 = 0.5412", "result": 966.2, "unit": "kg/m3"}, {"measurement": "mass density", "setting": "x2 = 0.5692", "result": 971.3, "unit": "kg/m3"}, {"measurement": "mass density", "setting": "x2 = 0.6038", "result": 977.7, "unit": "kg/m3"}, {"measurement": "mass density", "setting": "x2 = 0.6518", "result": 986.7, "unit": "kg/m3"}, {"measurement": "mass density", "setting": "x2 = 0.7065", "result": 997.7, "unit": "kg/m3"}, {"measurement": "mass density", "setting": "x2 = 0.7701", "result": 1010.8, "unit": "kg/m3"}, {"measurement": "mass density", "setting": "x2 = 0.8155", "result": 1020.5, "unit": "kg/m3"}, {"measurement": "mass density", "setting": "x2 = 0.9049", "result": 1040.5, "unit": "kg/m3"}, {"measurement": "mass density", "setting": "x2 = 0.9446", "result": 1049.8, "unit": "kg/m3"}, {"measurement": "mass density", "setting": "x2 = 0.9768", "result": 1057.6, "unit": "kg/m3"}]}, {"smiles": "CCOC(C)=O", "note": "+ COC(=O)OC", "values": [{"measurement": "mass density", "setting": "x2 = 0.0628", "result": 903.7, "unit": "kg/m3"}, {"measurement": "mass density", "setting": "x2 = 0.125", "result": 913.1, "unit": "kg/m3"}, {"measurement": "mass density", "setting": "x2 = 0.4591", "result": 966.3, "unit": "kg/m3"}, {"measurement": "mass density", "setting": "x2 = 0.4946", "result": 972.2, "unit": "kg/m3"}, {"measurement": "mass density", "setting": "x2 = 0.565", "result": 984.2, "unit": "kg/m3"}, {"measurement": "mass density", "setting": "x2 = 0.58", "result": 986.8, "unit": "kg/m3"}, {"measurement": "mass density", "setting": "x2 = 0.6185", "result": 993.4, "unit": "kg/m3"}, {"measurement": "mass density", "setting": "x2 = 0.6665", "result": 1001.8, "unit": "kg/m3"}, {"measurement": "mass density", "setting": "x2 = 0.7914", "result": 1024.2, "unit": "kg/m3"}, {"measurement": "mass density", "setting": "x2 = 0.8767", "result": 1039.9, "unit": "kg/m3"}, {"measurement": "mass density", "setting": "x2 = 0.9168", "result": 1047.4, "unit": "kg/m3"}]}, {"smiles": "COC(C)=O", "note": "+ COC(=O)OC", "values": [{"measurement": "mass density", "setting": "x2 = 0.0129", "result": 928.5, "unit": "kg/m3"}, {"measurement": "mass density", "setting": "x2 = 0.0977", "result": 941, "unit": "kg/m3"}, {"measurement": "mass density", "setting": "x2 = 0.1167", "result": 943.8, "unit": "kg/m3"}, {"measurement": "mass density", "setting": "x2 = 0.1862", "result": 953.8, "unit": "kg/m3"}, {"measurement": "mass density", "setting": "x2 = 0.3486", "result": 976.8, "unit": "kg/m3"}, {"measurement": "mass density", "setting": "x2 = 0.4149", "result": 986.1, "unit": "kg/m3"}, {"measurement": "mass density", "setting": "x2 = 0.4884", "result": 996.2, "unit": "kg/m3"}, {"measurement": "mass density", "setting": "x2 = 0.5256", "result": 1001.2, "unit": "kg/m3"}, {"measurement": "mass density", "setting": "x2 = 0.5642", "result": 1006.5, "unit": "kg/m3"}, {"measurement": "mass density", "setting": "x2 = 0.6279", "result": 1015, "unit": "kg/m3"}, {"measurement": "mass density", "setting": "x2 = 0.6847", "result": 1022.6, "unit": "kg/m3"}, {"measurement": "mass density", "setting": "x2 = 0.8581", "result": 1045.2, "unit": "kg/m3"}, {"measurement": "mass density", "setting": "x2 = 0.9745", "result": 1060.1, "unit": "kg/m3"}]}]}
